Source: the supplement of paper PMC4604168 (melanoma cell lines)
This is one part of the list. Most values come without repeats; read them as rough.

Key:
Assay in all cases: cell count relative to DMSO control; melanoma cells; higher = more viable cells
Conditions in all cases: library dose: standard library concentration; 72 h
501Mel = tested on: 501Mel
A101D = tested on: A101D
A2058 = tested on: A2058
A375 = tested on: A375
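Further: cells treated in 1,536-well plates, then fixed and DAPI-stained, with nuclei counted from automated high-throughput microscope images.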

SMILES | cell count (501Mel) | cell count (A101D) | cell count (A2058) | cell count (A375)
Cn1c(=O)n(-c2ccc(C(C)(C)C#N)cc2)c2c3cc(-c4cnc5ccccc5c4)ccc3ncc21 + CCN(CC)CCCCNc1ncc2cc(-c3cc(OC)cc(OC)c3)c(NC(=O)NC(C)(C)C)nc2n1 [PD173074] (first compound 0.02 µM, partner dose 0.5 µM) | 75.5% | 70.5% | 61.9% | 77.3%
Cc1cn(-c2cc(NC(=O)c3ccc(C)c(Nc4nccc(-c5cccnc5)n4)c3)cc(C(F)(F)F)c2)cn1 [nilotinib] + COc1ccc2c(c1)CCC1C2CCC2(C)C(NCCCCCCN3C(=O)C=CC3=O)CCC12 [U73122] (first compound 1 µM, partner dose 2 µM) | 108% | 66.2% | 4.33% | 103%
CC(C)C[C@H](NC(=O)[C@H](Cc1ccccc1)NC(=O)c1cnccn1)B(O)O [Bortezomib] + COc1ccc(COc2ccc(Cc3cnc(N)nc3N)cc2OC)cc1 [GW2580] (first compound 0.005 µM, partner dose 5 µM) | 6.75% | 13.6% | 14.2% | 84.7%
COc1ccc(C2=N[C@@H](c3ccc(Cl)cc3)[C@@H](c3ccc(Cl)cc3)N2C(=O)N2CCNC(=O)C2)c(OC(C)C)c1 [Nutlin-3] + CCN(CC)CCCCNc1ncc2cc(-c3cc(OC)cc(OC)c3)c(NC(=O)NC(C)(C)C)nc2n1 [PD173074] (first compound 0.5 µM, partner dose 0.5 µM) | 66.1% | 58.2% | 84.3% | 95%
COc1ccc(C2=N[C@@H](c3ccc(Cl)cc3)[C@@H](c3ccc(Cl)cc3)N2C(=O)N2CCNC(=O)C2)c(OC(C)C)c1 [Nutlin-3] + COc1ccc2c(c1)CCC1C2CCC2(C)C(NCCCCCCN3C(=O)C=CC3=O)CCC12 [U73122] (first compound 0.5 µM, partner dose 2 µM) | 116% | 46.3% | 58.5% | 68.4%
Cc1cc(Nc2cc(N3CCN(C)CC3)nc(/C=C/c3ccccc3)n2)n[nH]1 + CCc1ccc(CCOc2ccc(CC3SC(=O)NC3=O)cc2)nc1 [pioglitazone] (first compound 0.2 µM, partner dose 10 µM) | 71.2% | 79.1% | 81% | 101%
Cc1cn(-c2cc(NC(=O)c3ccc(C)c(Nc4nccc(-c5cccnc5)n4)c3)cc(C(F)(F)F)c2)cn1 [nilotinib] + CCN(CC)CCCCNc1ncc2cc(-c3cc(OC)cc(OC)c3)c(NC(=O)NC(C)(C)C)nc2n1 [PD173074] (first compound 1 µM, partner dose 0.5 µM) | 89.9% | 83.2% | 102% | 132%
COc1ccc(C2=N[C@@H](c3ccc(Cl)cc3)[C@@H](c3ccc(Cl)cc3)N2C(=O)N2CCNC(=O)C2)c(OC(C)C)c1 [Nutlin-3] + O=C(O)C(=O)Nc1sc2c(c1C(=O)O)CCNC2 [TCS401] (first compound 0.5 µM, partner dose 8.33333 µM) | 73.2% | 75.2% | 98.7% | 132%
Cc1cc(Nc2cc(N3CCN(C)CC3)nc(/C=C/c3ccccc3)n2)n[nH]1 + Cc1cc([N+](=O)[O-])ccc1NS(=O)(=O)c1cc(Cl)ccc1Cl [FH535] (first compound 0.2 µM, partner dose 5 µM) | 61.4% | 70.7% | 75.7% | 79.7%
CC(C)C[C@H](NC(=O)[C@H](Cc1ccccc1)NC(=O)c1cnccn1)B(O)O [Bortezomib] + O=c1cc(-c2cccc3c2Sc2ccccc2S3)oc(N2CCOCC2)c1 [KU55933] (first compound 0.005 µM, partner dose 5 µM) | 10% | 9.91% | 9.86% | 98.5%
COc1ccc(C2=N[C@@H](c3ccc(Cl)cc3)[C@@H](c3ccc(Cl)cc3)N2C(=O)N2CCNC(=O)C2)c(OC(C)C)c1 [Nutlin-3] + COc1ccc(-c2ccc3c(N4CCOCC4)nc(N4C[C@@H](C)O[C@@H](C)C4)nc3n2)cc1CO [KU0063794] (first compound 0.5 µM, partner dose 0.1 µM) | 76.4% | 66.3% | 85.7% | 77.5%
Cc1cn(-c2cc(NC(=O)c3ccc(C)c(Nc4nccc(-c5cccnc5)n4)c3)cc(C(F)(F)F)c2)cn1 [nilotinib] + O=S(=O)(c1ccccc1)N(CC(F)(F)F)c1ccc(C(O)(C(F)(F)F)C(F)(F)F)cc1 [T0901317] (first compound 1 µM, partner dose 7 µM) | 70.3% | 82.9% | 116% | 116%
CC(C)C[C@H](NC(=O)[C@H](Cc1ccccc1)NC(=O)c1cnccn1)B(O)O [Bortezomib] + O=C1NC(=O)/C(=C/c2ccc(-c3ccc(F)cc3O)o2)S1 [AS252424] (first compound 0.005 µM, partner dose 5 µM) | 3.89% | 10.9% | 14.5% | 103%
Cc1cc(Nc2cc(N3CCN(C)CC3)nc(/C=C/c3ccccc3)n2)n[nH]1 + CC(C)CCN1c2nc(Nc3cc(F)c(O)c(F)c3)ncc2N(C)C(=O)C1C [BID1870] (first compound 0.2 µM, partner dose 1 µM) | 69.8% | 47.8% | 77% | 85.3%
Cc1cn(-c2cc(NC(=O)c3ccc(C)c(Nc4nccc(-c5cccnc5)n4)c3)cc(C(F)(F)F)c2)cn1 [nilotinib] + Cn1cc(/C=C2\C(=O)Nc3cccnc32)c2ccccc21 [GW441756] (first compound 1 µM, partner dose 2 µM) | 79.8% | 83.6% | 97% | 138%
COc1ccc(C2=N[C@@H](c3ccc(Cl)cc3)[C@@H](c3ccc(Cl)cc3)N2C(=O)N2CCNC(=O)C2)c(OC(C)C)c1 [Nutlin-3] + O=C(Nc1ccccc1)c1cc([N+](=O)[O-])ccc1Cl [GW9662] (first compound 0.5 µM, partner dose 10 µM) | 71.6% | 56.7% | 71.9% | 115%
Cc1cc(Nc2cc(N3CCN(C)CC3)nc(/C=C/c3ccccc3)n2)n[nH]1 + O=C(O)C(=O)Nc1sc2c(c1C(=O)O)CCNC2 [TCS401] (first compound 0.2 µM, partner dose 8.33333 µM) | 131% | 82.6% | 90.3% | 179%
CC(C)C[C@H](NC(=O)[C@H](Cc1ccccc1)NC(=O)c1cnccn1)B(O)O [Bortezomib] + Cc1cc([N+](=O)[O-])ccc1NS(=O)(=O)c1cc(Cl)ccc1Cl [FH535] (first compound 0.005 µM, partner dose 5 µM) | 4.97% | 7.44% | 27.5% | 76.5%
Cc1cc(Nc2cc(N3CCN(C)CC3)nc(/C=C/c3ccccc3)n2)n[nH]1 + CCN(CC)CCCCNc1ncc2cc(-c3cc(OC)cc(OC)c3)c(NC(=O)NC(C)(C)C)nc2n1 [PD173074] (first compound 0.2 µM, partner dose 0.5 µM) | 99.1% | 92.7% | 92.7% | 102%
Cn1c(=O)n(-c2ccc(C(C)(C)C#N)cc2)c2c3cc(-c4cnc5ccccc5c4)ccc3ncc21 + CCCCCCCCCCCC1=C(O)C(=O)C=C(O)C1=O [Embelin] (first compound 0.02 µM, partner dose 6 µM) | 72.8% | 73.5% | 73.5% | 92.2%
COc1ccc(C2=N[C@@H](c3ccc(Cl)cc3)[C@@H](c3ccc(Cl)cc3)N2C(=O)N2CCNC(=O)C2)c(OC(C)C)c1 [Nutlin-3] + O=S(=O)(c1ccccc1)N(CC(F)(F)F)c1ccc(C(O)(C(F)(F)F)C(F)(F)F)cc1 [T0901317] (first compound 0.5 µM, partner dose 7 µM) | 50% | 72.5% | 67.1% | 85.7%
CC(C)C[C@H](NC(=O)[C@H](Cc1ccccc1)NC(=O)c1cnccn1)B(O)O [Bortezomib] + c1cc(-c2cnn3cc(-c4ccc(OCCN5CCCCC5)cc4)cnc23)ccn1 [Dorsomorphin] (first compound 0.005 µM, partner dose 2 µM) | 1.55% | 7.7% | 6.88% | 72%
Cc1cn(-c2cc(NC(=O)c3ccc(C)c(Nc4nccc(-c5cccnc5)n4)c3)cc(C(F)(F)F)c2)cn1 [nilotinib] + Cc1cc([N+](=O)[O-])ccc1NS(=O)(=O)c1cc(Cl)ccc1Cl [FH535] (first compound 1 µM, partner dose 5 µM) | 87.8% | 67.9% | 111% | 100%
Cn1c(=O)n(-c2ccc(C(C)(C)C#N)cc2)c2c3cc(-c4cnc5ccccc5c4)ccc3ncc21 + O=c1cc(-c2cccc3c2Sc2ccccc2S3)oc(N2CCOCC2)c1 [KU55933] (first compound 0.02 µM, partner dose 5 µM) | 69.5% | 71.3% | 77.8% | 86.4%
CC(C)C[C@H](NC(=O)[C@H](Cc1ccccc1)NC(=O)c1cnccn1)B(O)O [Bortezomib] + COc1ccc(-c2ccc3c(N4CCOCC4)nc(N4C[C@@H](C)O[C@@H](C)C4)nc3n2)cc1CO [KU0063794] (first compound 0.005 µM, partner dose 0.1 µM) | 25.1% | 11.6% | 35.2% | 117%
Cc1cn(-c2cc(NC(=O)c3ccc(C)c(Nc4nccc(-c5cccnc5)n4)c3)cc(C(F)(F)F)c2)cn1 [nilotinib] + COc1ccc(-c2ccc3c(N4CCOCC4)nc(N4C[C@@H](C)O[C@@H](C)C4)nc3n2)cc1CO [KU0063794] (first compound 1 µM, partner dose 0.1 µM) | 98.5% | 85% | 88.4% | 114%
